# The campaign covered roughly 420,000 compounds. About 64,000 (15%) were called active. The inconclusive results got no clear call from the source; some entries with a clear call stand among them for comparison. The call rests on the fitted dose curve; in most records, active means well fitted inhibition curve with a large enough effect; inconclusive means small, poorly fitted or top-dose-only effect; inactive means flat fitted curve, though single readings scatter. No potency is given beside an inconclusive call; the fits are too rough.
# Assay: qHTS for Inhibitors of human tyrosyl-DNA phosphodiesterase 1 (TDP1): qHTS in cells in absence of CPT; further: nearly all actives have a fitted effect of over 55% in size
# Details: DT40 Tdp1-/- hTDP1 cells, no CPT, ATP luminescence, 48 h; activity change, negative = growth inhibition: at 46.2 µM (top of the series) unless noted
# In short: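 Readout: luminescence from CellTiter-Glo after 30 min in the dark at RT. Cells: DT40 Tdp1-/- with stable hTDP1, 400/well. Exposure: compounds alone, ≥48 hr, 37 °C.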
# On the % scale 0 is the no-effect control and ±100 the full control effect; potency means the concentration at half of the fitted maximal effect; tags describe the fitted curve by direction and shape.
Structure (SMILES),"activity change, negative = growth inhibition",Potency
O=C(CSc1nnc(-c2cccs2)n1-c1ccccc1)c1ccc2c(c1)OCCO2,inactive: -21.6%,
COCOc1cccc(CN2CCC(C)(Oc3cccc(OC)c3)C2)c1 (centres undefined),,"inconclusive [inhibitor, single point]"
C=C(C)C(=O)Nc1ccc2c(c1)OCCOCCOCCO2,inactive: -7.26%,
COC(=O)CC1COc2ccccc2N1C(=O)c1ccc(C(C)(C)C)cc1 (centres undefined),,"inconclusive [inhibitor, partial curve, poor fit]"
COC(=O)c1ccc(CSc2nc3ccccc3c(=O)n2-c2ccccc2)o1,,"inconclusive [inhibitor, single point]"
COc1ccc(S(=O)(=O)Nc2cccc3c2O[C@H](CN(C)S(=O)(=O)c2ccc(OC)cc2)[C@@H](C)CN([C@H](C)CO)C3=O)cc1,,"inconclusive [inhibitor, single point]"
COc1cccc(C2C=C(c3ccc(OC)cc3OC)Nc3nnnn32)c1 (centres undefined),,active: 16.4 µM
CCOc1ccc(-c2cc(C(=O)N3CCN(C)CC3)c3ccccc3n2)cc1,,"inconclusive [inhibitor, single point]"
O=C1/C(=C\c2ccc(Br)o2)SC(=Nc2ccccc2)N1c1ccccc1,,"inconclusive [inhibitor, single point]"
Cc1noc(C)c1C(=O)Nc1ccccc1-c1ccccc1,,"inconclusive [inhibitor, single point]"
COc1ccc(C2C(=O)N(C3CCCCC3)CC(=O)N2CCc2ccc(OC)c(OC)c2)cc1 (centres undefined),,"inconclusive [inhibitor, single point]"
CN1C(=O)C2C3c4ccccc4C(c4ccccc43)[C@@H]2C1=O (some centres undefined),,"inconclusive [inhibitor, full curve]"
O=C(NCc1ccccn1)c1cc2ccccn2n1,inactive: 3.01%,
O=C(c1cccs1)N(CC1CCCO1)c1nc(-c2ccccc2)cs1 (centres undefined),,"inconclusive [inhibitor, single point]"
CCCCNC(=O)C1c2ccccc2OCC(=O)N1Cc1cccnc1 (centres undefined),inactive: -23%,
Cc1ccc(Cc2c(-c3ccc(C)cc3)nc3c(Cl)cc(C(F)(F)F)cn23)cc1,,"inconclusive [inhibitor, single point]"
CC1(C)Cc2cccc(C(=O)NCc3ccco3)c2O1,,"inconclusive [inhibitor, single point]"
Cc1ccccc1OCC(O)Cn1c(NCc2ccco2)nc2c1c(=O)[nH]c(=O)n2C (centres undefined),,"inconclusive [inhibitor, single point]"
COCCn1nnnc1C(c1cccs1)N1CCN2CCCC2C1 (centres undefined),inactive: -7.18%,
CCOC(=O)c1cc(C)n(CC2CCC(C(=O)Nc3ccc(OCC)cc3)CC2)c1C (centres undefined),,active: 20.6 µM
COc1cc(NC(=O)c2nc3ccccc3nc2C)cc(OC)c1OC,,"inconclusive [inhibitor, single point]"
CC(=O)c1cccc(NC(=O)CSc2ccc(-c3cccnc3)nn2)c1,,"inconclusive [inhibitor, partial curve]"
Nc1ccc(-c2nc3c(ccc4ccccc43)[nH]2)cc1,,"inconclusive [inhibitor, single point]"
COc1ccc(C(=O)N2CCCCCC2)cc1OC1CCN(C(C)=O)CC1,inactive: -5.76%,
COc1ccc(NC(=O)/C=C/C(=O)O)c([N+](=O)[O-])c1,,"inconclusive [inhibitor, single point]"

Structure (SMILES),"activity change, negative = growth inhibition",Potency
Cc1ccc(-n2c(=O)c3ccccc3n(CC(=O)NCc3ccco3)c2=O)cc1,inactive: -7.59%,
COc1ccc(CNC(=S)Nc2cccc(F)c2)cc1,inactive: 4.89%,
COc1ccccc1N1CCN(/N=C\c2ccccc2)CC1,inactive: -1.15%,
COc1ccc(NC(=O)CCn2nc(-c3ccccc3OC)c3c(C)cc(C)nc32)cc1,,active: 20.6 µM
Cc1ccc(-n2nc3c(c2NC(=O)CCC2CCCCC2)CS(=O)C3)cc1 (centres undefined),inactive: -21.2%,
CCCCn1nnnc1C(c1cc2ccccc2o1)N1CCN(c2ccccc2F)CC1 (centres undefined),,"inconclusive [inhibitor, single point]"
CC(C)(C)OC(=O)NCCCCCc1nnc(SCc2ccccc2)o1,,"inconclusive [inhibitor, single point]"
CCC(C(=O)N1CCN(c2ccccc2F)CC1)n1nc(C)c2sc3ccccc3c2c1=O (centres undefined),,"inconclusive [inhibitor, single point]"
COc1ccc(C2(C)ON(c3ccccc3C(F)(F)F)C2=O)cc1 (centres undefined),,"inconclusive [inhibitor, single point]"
CC1=C(C(=O)OCC(C)C)C(c2ccc(OCc3ccccc3)cc2)N2C(=O)CCSC2=N1 (centres undefined),,active: 16.4 µM
CCOC(=O)N1CCc2c(sc3c2c(=O)n(Cc2ccccc2)c(=O)n3Cc2ccccc2F)C1,,"inconclusive [inhibitor, single point]"
Cc1ccc(-n2nc(C(=O)Nc3ccc(Cl)cn3)c3c4ccccc4n(C)c3c2=O)cc1,inactive: -18.8%,
Cc1ccccc1OCc1ccc(-c2nc(C#N)c(N3CCN(C)CC3)o2)o1,,"inconclusive [inhibitor, single point]"
CCOc1ccc(C(=O)CCC(=O)NN2CCCCC2)cc1,inactive: -1.94%,
CSCC(C)N1CCC(n2nccc2NC(=O)CCOc2ccccc2)CC1 (centres undefined),inactive: 24.6%,
FC(F)(F)c1cccc(CNC2c3ccccc3-c3ccccc32)c1,inactive: -27.8%,
Cc1cc(NC(=O)CCC(=O)N(Cc2cccs2)C(C(=O)NC2CCCC2)c2ccncc2)no1 (centres undefined),inactive: 1.11%,
Cc1ccc(Cl)cc1N1CCN(C(=O)c2cccn3c(=O)c4cc(Cl)ccc4nc23)CC1,inactive: -1.72%,
Cn1c(C=O)c(-c2ccc3cc[nH]c3c2)c2ccccc21,inactive: -23.4%,
CCOC(=O)N1CCC(NC(=O)CCc2c(C)nc3c(c(C)nn3C(C)(C)C)c2C)CC1,,"inconclusive [inhibitor, single point]"
Cc1ccc(S(=O)(=O)N2c3ccccc3OC(C(=O)OC(C)(C)C)(C(=O)OC(C)(C)C)C2CC(=O)c2ccccc2)cc1 (centres undefined),,active: 5.8 µM
O=C1NC[C@H](CCCCN2C[C@H](Cc3ccc(O)cc3)N(CCc3ccc(O)cc3)C(=O)C2=O)N(CCc2ccc(O)cc2)C1=O,inactive: 1.33%,
COC(=O)C[C@@H]1CC[C@@H](NC(=O)C2CCC2)[C@@H](CO)O1,inactive: -6.08%,
N#C/C(=C\c1cc(O)c(O)c(O)c1)C(N)=O,,"inconclusive [inhibitor, single point]"
COc1ccc([C@H]2CC(=O)C=C(c3cccc(CO)c3)C2)cc1,,"inconclusive [inhibitor, single point]"

Structure (SMILES),"activity change, negative = growth inhibition",Potency
CCOC(=O)c1nnn(-c2nc(OC)nc(N(C)C)n2)c1-c1ccccc1,,"inconclusive [inhibitor, partial curve, poor fit]"
CCN1/C(=C2\C(=O)N(C)C(=S)N2C)C=Cc2cc(C)ccc21,,"inconclusive [inhibitor, partial curve]"
COc1cccc(CNC(=O)C(NS(=O)(=O)c2ccc3c(c2)oc(=O)n3C)C(C)C)c1 (centres undefined),inactive: 6.79%,
O=C(CSc1nc(=O)n2ccccc2n1)Nc1ccc2c(c1)OCCO2,,"inconclusive [inhibitor, single point]"
CCN1CCN(S(=O)(=O)Cc2ccccc2)CC1,inactive: -5.36%,
Cc1ccccc1C(=O)Nc1ccc(S(=O)(=O)N2CC(C)OC(C)C2)cc1 (centres undefined),inactive: -28.8%,
Cc1nnsc1C(=O)Oc1ccc(C(C)C)cc1,inactive: 7.75%,
Cn1c2ccc(F)cc2c2nnc(SCC(=O)Nc3cccc(O)c3)nc21,,"inconclusive [inhibitor, single point]"
Cc1ccc(C(C)(C)C)cc1S(=O)(=O)Nc1nc2ccccc2nc1Cl,,"inconclusive [inhibitor, single point]"
C=CC[C@H](CC(=O)NCCO)C(=O)N[C@@H](C)COC(=O)[C@H](CC=C)CC(=O)OC(C)(C)C,inactive: -7.83%,
O=C(Cc1ccccc1)c1ccccc1C(=O)N1CCCCC1,inactive: -8.23%,
O=C(NC1CCc2ccccc21)c1cc(COc2cncc(Cl)c2)on1 (centres undefined),,"inconclusive [inhibitor, partial curve, poor fit]"
C[C@@H]1CN([C@H](C)CO)C(=O)CCCn2nncc2CO[C@@H]1CN(C)S(C)(=O)=O,inactive: -23%,
COc1ccc(CN(CCC(c2ccccc2)c2ccc(OC(C)C)cc2)C(=O)CCl)cc1OC (centres undefined),,active: 2.91 µM
O=C(c1cccc(C(F)(F)F)c1)N1CCOC12CCN(c1ncc(C(F)(F)F)cc1Cl)CC2,,active: 23.1 µM
Cc1cccc(/C(N)=N/OC(=O)c2ccc3c(c2)OCO3)c1,,"inconclusive [inhibitor, single point]"
CCOc1ccc(NC(=O)CCN2CCN(C)CC2)cc1,inactive: 1.39%,
COc1ccc(S(=O)(=O)Nc2cccc(-c3ccc(N4CCCCCC4)nn3)c2)cc1,,"inconclusive [inhibitor, single point]"
Cc1nc(NC(=O)c2cccc(Cl)c2)sc1C(=O)N1CCCCC1,,active: 18.4 µM
COc1ccc([C@H]2CC(=O)C=C(c3c(C)cc(C)cc3C)C2)cc1,,"inconclusive [inhibitor, partial curve, poor fit]"
COc1cccc(C(=O)N(Cc2ccc(N(C)C)cc2)C2CCS(=O)(=O)C2)c1 (centres undefined),inactive: 4.52%,
CC(=O)c1cccc(NC(=O)CSc2ccc(-c3ccccn3)nn2)c1,,"inconclusive [inhibitor, single point]"
COC(=O)[C@H](CCSC)NC(=O)NC1CC1,inactive: -1.65%,
Clc1ccccc1Cc1noc(CN2CCCCC2c2ccccn2)n1 (centres undefined),inactive: -26.1%,

# From PubChem BioAssay AID686978 (National Center for Advancing Translational Sciences (NCATS), 2013)
